Assay results reported in a compilation of properties of binary mixtures (doi:10.1021/acs.jced.8b00784).
Some of these densities may be calculated back from excess volumes.

Assay: xn = mol fraction of the nth substance listed
Conditions: 100 kPa

CCCC[n+]1ccn(C)c1.F[B-](F)(F)F + CC(=O)[O-].CCCC[n+]1ccn(C)c1
Conditions	mass density [kg/m3]
298.15 K, x1 = 1	1201.2

CC(=O)[O-].CCCC[n+]1ccn(C)c1 + CCCC[n+]1ccn(C)c1.F[B-](F)(F)F
mass density [kg/m3]
Conditions	x2 = 0	x2 = 0.1	x2 = 0.2	x2 = 0.3	x2 = 0.4	x2 = 0.5	x2 = 0.6	x2 = 0.7	x2 = 0.8	x2 = 0.9
298.15 K	1052.1	1066.3	1080.4	1094.3	1107.9	1122.1	1137	–	1168.1	1184.2
308.15 K	1043.1	–	1071.5	1085.6	1099.2	1113.3	1128.4	1144.2	1159.7	–
318.15 K	1037	1051.1	–	–	1092.9	1107.1	–	1137.7	1153.4	1169.2
